Experimental data: the supplement of paper PMC9151546
Structures can show the parent of a compound that is named as a salt. Most values come without repeats; read them as rough.

Legend:
[1] = test system: CHO-K1; assay: hypodiploid nuclei frequency (% of nucleated events); higher = more hypodiploid events (aneugenic)
Experimental: (§1)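 Flow-cytometric in vitro micronucleus assay (Litron MicroFlow) in CHO-K1 cells in 96-well plates, 19 concentrations (4.5-200 µM, n=1 per concentration). Without S9, cells were exposed for 24 h and sampled at 48 h. With Aroclor 1254-induced rat liver S9, cells were exposed for 3-4 h and sampled at 27-28 h. Read-outs are %MN and %hypodiploid nuclei relative to nucleated events, and relative survival as the nuclei-to-bead ratio versus the 1% DMSO vehicle control (x100).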

[2] = test system: CHO-K1; assay: micronucleus frequency (% of nucleated events); higher = more micronuclei (genotoxic)
[3] = test system: CHO-K1; assay: relative survival (nuclei to bead ratio vs DMSO control) (% of vehicle control); higher = more surviving cells
Experimental: as §1
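Wherever hypodiploid nuclei frequency (% of nucleated events) is given: hypodiploid nuclei gated on a flow cytometer with 488 nm excitation after SYTOX Green staining, cultures at 37 °C, positive controls vinblastine without S9 and cyclophosphamide with S9.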
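Wherever micronucleus frequency (% of nucleated events) is given: cells lysed with nuclei stained by SYTOX Green, then micronucleus-gated events counted against nucleated events by flow cytometry with 488 nm excitation.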
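Wherever relative survival (nuclei to bead ratio vs DMSO control) is given: Lysed-cell nuclei stained with SYTOX Green and counted against counting beads by flow cytometry at 488 nm excitation, with vinblastine (no S9) and cyclophosphamide (plus S9) as positive controls.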

CCc1ccc(CCOc2ccc(CC3SC(=O)NC3=O)cc2)nc1 (stereo not drawn) [Pioglitazone hydrochloride]
Conditions | hypodiploid nuclei frequency, [1] [%] | micronucleus frequency, [2] [%] | relative survival, [3]
concentration: 4.5 (µM), S9 metabolic activation: with S9, exposure time: 3-4 hours | 0.26 | 1.12 | 76.5
concentration: 4.5 (µM), S9 metabolic activation: without S9, exposure time: 24 hours | 0.54 | 2.42 | 112
concentration: 5.63 (µM), S9 metabolic activation: with S9, exposure time: 3-4 hours | 0.32 | 1.94 | 90.5
concentration: 5.63 (µM), S9 metabolic activation: without S9, exposure time: 24 hours | 0.6 | 2.16 | 103
concentration: 7.04 (µM), S9 metabolic activation: with S9, exposure time: 3-4 hours | 0.24 | 1.36 | 91.9
concentration: 7.04 (µM), S9 metabolic activation: without S9, exposure time: 24 hours | 0.66 | 2.14 | 107
concentration: 8.8 (µM), S9 metabolic activation: with S9, exposure time: 3-4 hours | 0.4 | 1.46 | 82.9
concentration: 8.8 (µM), S9 metabolic activation: without S9, exposure time: 24 hours | 1.12 | 2.28 | 102
concentration: 11 (µM), S9 metabolic activation: with S9, exposure time: 3-4 hours | 0.24 | 1.42 | 94.5
concentration: 11 (µM), S9 metabolic activation: without S9, exposure time: 24 hours | 1.1 | 2.28 | 121
concentration: 13.7 (µM), S9 metabolic activation: with S9, exposure time: 3-4 hours | 0.24 | 1.32 | 106
concentration: 13.7 (µM), S9 metabolic activation: without S9, exposure time: 24 hours | 0.76 | 1.72 | 104
concentration: 17.2 (µM), S9 metabolic activation: with S9, exposure time: 3-4 hours | 0.24 | 1.7 | 118
concentration: 17.2 (µM), S9 metabolic activation: without S9, exposure time: 24 hours | 1.1 | 1.58 | 120
concentration: 21.5 (µM), S9 metabolic activation: with S9, exposure time: 3-4 hours | 0.22 | 0.96 | 118
concentration: 21.5 (µM), S9 metabolic activation: without S9, exposure time: 24 hours | 1.06 | 1.74 | 101
concentration: 26.8 (µM), S9 metabolic activation: with S9, exposure time: 3-4 hours | 0.16 | 1.02 | 84.1
concentration: 26.8 (µM), S9 metabolic activation: without S9, exposure time: 24 hours | 0.82 | 2.26 | 94.6
concentration: 33.6 (µM), S9 metabolic activation: with S9, exposure time: 3-4 hours | 0.28 | 1.28 | 83.5
concentration: 33.6 (µM), S9 metabolic activation: without S9, exposure time: 24 hours | 1.12 | 2.7 | 98.4
concentration: 41.9 (µM), S9 metabolic activation: with S9, exposure time: 3-4 hours | 0.34 | 1.18 | 87.7
concentration: 41.9 (µM), S9 metabolic activation: without S9, exposure time: 24 hours | 0.74 | 2.48 | 97.4
concentration: 52.4 (µM), S9 metabolic activation: with S9, exposure time: 3-4 hours | 0.28 | 1.04 | 83.7
concentration: 52.4 (µM), S9 metabolic activation: without S9, exposure time: 24 hours | 1.24 | 2.98 | 87.8
concentration: 65.5 (µM), S9 metabolic activation: with S9, exposure time: 3-4 hours | 0.22 | 1.28 | 85
concentration: 65.5 (µM), S9 metabolic activation: without S9, exposure time: 24 hours | 1.32 | 2.66 | 91.1
concentration: 81.9 (µM), S9 metabolic activation: with S9, exposure time: 3-4 hours | 0.24 | 1.96 | 102
concentration: 81.9 (µM), S9 metabolic activation: without S9, exposure time: 24 hours | 1.28 | 2.6 | 97.4
concentration: 102 (µM), S9 metabolic activation: with S9, exposure time: 3-4 hours | 0.24 | 1.34 | 92.6
concentration: 102 (µM), S9 metabolic activation: without S9, exposure time: 24 hours | 1.3 | 3.04 | 82.3
concentration: 128 (µM), S9 metabolic activation: with S9, exposure time: 3-4 hours | 0.24 | 1.56 | 97
concentration: 128 (µM), S9 metabolic activation: without S9, exposure time: 24 hours | 1.6 | 2.68 | 72.8
concentration: 160 (µM), S9 metabolic activation: with S9, exposure time: 3-4 hours | 0.34 | 1.56 | 102
concentration: 160 (µM), S9 metabolic activation: without S9, exposure time: 24 hours | 1.16 | 3.24 | 68
concentration: 200 (µM), S9 metabolic activation: with S9, exposure time: 3-4 hours | 0.18 | 1.42 | 106
concentration: 200 (µM), S9 metabolic activation: without S9, exposure time: 24 hours | 1.72 | 3.7 | 59.2
